Numbering of substitutions follows the chain as printed; changes in the protein carry UniProt numbers. Some of the results follow.
T1: RBFOX1 RRM RbFoxmut (Fox-RRM*) (Homo sapiens, UniProt Q9NWB1 109-208, R118D;E147R;N151S;E152T)
T1 sequence: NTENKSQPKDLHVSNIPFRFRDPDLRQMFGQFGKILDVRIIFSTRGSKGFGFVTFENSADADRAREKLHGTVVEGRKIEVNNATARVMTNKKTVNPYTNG

B1: GAACGGA (DNA:RNA)
RNA: GGGAGACCGGAAUUCAGAUUGUCCGAACGGAUUAAAUCCCGUCGUAGCCACCA
DNA 1: CAATCTGAATTCCGGTCTCCC
DNA 2: TGGTGGCTACGACGGGATT
B2: UGACCAG (DNA:RNA)
RNA: B1 RNA with G25U, A26G, G29C, G30A, A31G
DNA 1: CAATCTGAATTCCGGTCTCCC
DNA 2: TGGTGGCTACGACGGGATT
B3: UAGUUCA (DNA:RNA)
RNA: B1 RNA with G25U, A27G, C28U, G29U, G30C
DNA 1: CAATCTGAATTCCGGTCTCCC
DNA 2: TGGTGGCTACGACGGGATT
B4: GUAAGCG (DNA:RNA)
RNA: B1 RNA with A26U, C28A, G30C, A31G
DNA 1: CAATCTGAATTCCGGTCTCCC
DNA 2: TGGTGGCTACGACGGGATT
B5: GGGCGGC (DNA:RNA)
RNA: B1 RNA with A26G, A27G, A31C
DNA 1: CAATCTGAATTCCGGTCTCCC
DNA 2: TGGTGGCTACGACGGGATT
B6: UCCCUAG (DNA:RNA)
RNA: B1 RNA with G25U, A26C, A27C, G29U, G30A, A31G
DNA 1: CAATCTGAATTCCGGTCTCCC
DNA 2: TGGTGGCTACGACGGGATT
B7: CCAUGGC (DNA:RNA)
RNA: B1 RNA with G25C, A26C, C28U, A31C
DNA 1: CAATCTGAATTCCGGTCTCCC
DNA 2: TGGTGGCTACGACGGGATT
B8: CCUGCAU (DNA:RNA)
RNA: GGGAGACCGGAAUUCAGAUUGUCCCCUGCAUUUAAAUCCCGUCGUAGCCACCA
DNA 1: CAATCTGAATTCCGGTCTCCC
DNA 2: TGGTGGCTACGACGGGATT
B9: GAACGCU (DNA:RNA)
RNA: B1 RNA with G30C, A31U
DNA 1: CAATCTGAATTCCGGTCTCCC
DNA 2: TGGTGGCTACGACGGGATT
B10: CUGGCUG (DNA:RNA)
RNA: B8 RNA with C26U, U27G, A30U, U31G
DNA 1: CAATCTGAATTCCGGTCTCCC
DNA 2: TGGTGGCTACGACGGGATT
B11: CGGCCUA (DNA:RNA)
RNA: B8 RNA with C26G, U27G, G28C, A30U, U31A
DNA 1: CAATCTGAATTCCGGTCTCCC
DNA 2: TGGTGGCTACGACGGGATT
B12: UCGGAGU (DNA:RNA)
RNA: B8 RNA with C25U, U27G, C29A, A30G
DNA 1: CAATCTGAATTCCGGTCTCCC
DNA 2: TGGTGGCTACGACGGGATT
B13: CGUGAGU (DNA:RNA)
RNA: B8 RNA with C26G, C29A, A30G
DNA 1: CAATCTGAATTCCGGTCTCCC
DNA 2: TGGTGGCTACGACGGGATT
B14: UUGGUCC (DNA:RNA)
RNA: B8 RNA with C25U, C26U, U27G, C29U, A30C, U31C
DNA 1: CAATCTGAATTCCGGTCTCCC
DNA 2: TGGTGGCTACGACGGGATT
B15: UUCUACU (DNA:RNA)
RNA: B8 RNA with C25U, C26U, U27C, G28U, C29A, A30C
DNA 1: CAATCTGAATTCCGGTCTCCC
DNA 2: TGGTGGCTACGACGGGATT
B16: UUUUGAG (DNA:RNA)
RNA: B8 RNA with C25U, C26U, G28U, C29G, U31G
DNA 1: CAATCTGAATTCCGGTCTCCC
DNA 2: TGGTGGCTACGACGGGATT
B17: GGCGUAC (DNA:RNA)
RNA: B8 RNA with C25G, C26G, U27C, C29U, U31C
DNA 1: CAATCTGAATTCCGGTCTCCC
DNA 2: TGGTGGCTACGACGGGATT
B18: UAUCGAU (DNA:RNA)
RNA: B8 RNA with C25U, C26A, G28C, C29G
DNA 1: CAATCTGAATTCCGGTCTCCC
DNA 2: TGGTGGCTACGACGGGATT
B19: AACGCCG (DNA:RNA)
RNA: B8 RNA with C25A, C26A, U27C, A30C, U31G
DNA 1: CAATCTGAATTCCGGTCTCCC
DNA 2: TGGTGGCTACGACGGGATT
B20: AUCUGAC (DNA:RNA)
RNA: B8 RNA with C25A, C26U, U27C, G28U, C29G, U31C
DNA 1: CAATCTGAATTCCGGTCTCCC
DNA 2: TGGTGGCTACGACGGGATT

These binders were tested against T1, RBFOX1 RRM RbFoxmut (Fox-RRM*) (assay: EMSA; HiTS-Eq, 1 nM pool, 10 min; buffer printed only for the single-RNA assays: 10 mM Tris pH 7.5, 150 mM NaCl, 3.4 mM EDTA, 0.001% NP-40, 30 C). Conditions: tags: His6 N-terminal (pET28a); label: 5' 32P.
Method in brief: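 Relative association constants, normalised to the cognate motif, were derived by comparing read counts of each RNA species with those of the control reaction. The RNA sequenced was the free fraction, separated by 8% native PAGE after a 10 min equilibration in 50 µL of 1 nM 5′-radiolabelled RNA (7 randomized nucleotides) with increasing concentrations of purified wild-type or mutant RbFox RRM.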

First: B1
Second: B2
The binding signal of the first is higher: 0.0858 KA relative to UGCAUGU for the first, 0.0694 KA relative to UGCAUGU for the second.

First: B3
Second: B4
The binding signal of the first is higher: 0.137 KA relative to UGCAUGU for the first, 0.118 KA relative to UGCAUGU for the second.

First: B5
Second: B6
The binding signal of the first is lower: 0.0913 KA relative to UGCAUGU for the first, 0.131 KA relative to UGCAUGU for the second.

First: B7
Second: B8
The binding signal of the first is lower: 0.0829 KA relative to UGCAUGU for the first, 0.139 KA relative to UGCAUGU for the second.

First: B9
Second: B10
The binding signal of the first is lower: 0.135 KA relative to UGCAUGU for the first, 0.431 KA relative to UGCAUGU for the second.

First: B11
Second: B12
The binding signal of the first is lower: 0.0776 KA relative to UGCAUGU for the first, 0.104 KA relative to UGCAUGU for the second.

First: B13
Second: B14
The binding signal of the first is higher: 0.156 KA relative to UGCAUGU for the first, 0.131 KA relative to UGCAUGU for the second.

First: B15
Second: B16
The binding signal of the first is lower: 0.0829 KA relative to UGCAUGU for the first, 0.114 KA relative to UGCAUGU for the second.

First: B17
Second: B18
The binding signal of the first is higher: 0.0839 KA relative to UGCAUGU for the first, 0.0515 KA relative to UGCAUGU for the second.

First: B19
Second: B20
The binding signal of the first is lower: 0.114 KA relative to UGCAUGU for the first, 0.124 KA relative to UGCAUGU for the second.
